Screen size: about 50,000 compounds; about 800 (1.6%) showed an effect of 50% or more. The list shows a part of the results.
These compounds were tested against Bcl-2-like protein 10 (Homo sapiens) (UniProt Q9HD36) (assay: Phenotype converters, Bcl-B/TR3 peptide binding displacement, primary biochemical FP (AID 1240;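 note: 0% = Bcl-B with tracer peptide and DMSO and 100% = tracer peptide lacking Bcl-B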)). Settings: GST-Bcl-B / FITC-TR3 peptide fluorescence polarization; stronger effect = higher value; compound at 3.75 mg/L.
Chain of UniProt Q9HD36 (Q9HD36 whole entry, looked up): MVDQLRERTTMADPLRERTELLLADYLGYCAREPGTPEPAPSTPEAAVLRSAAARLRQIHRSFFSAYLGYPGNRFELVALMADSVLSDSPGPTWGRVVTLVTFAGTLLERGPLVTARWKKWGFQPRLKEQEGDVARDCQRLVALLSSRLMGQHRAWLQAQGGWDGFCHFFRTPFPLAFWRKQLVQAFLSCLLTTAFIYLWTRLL

Question: For `O=C(Nc1ccc(Cl)cc1Cl)c1nn2c(c1Cl)NC(c1ccc(Cl)cc1)CC2C(F)(F)F` (stereo unspecified), which displacement is on record?
Answer: 3%

Question: Which displacement does the source give for `O=C(CN(Cc1ccccc1)Cc1ccccc1)NCCNc1ccc([N+](=O)[O-])cc1Cl` here?
Answer: -3.7%

Question: With `CCCCOc1ccc(N/C(N)=N/c2nc(C(F)(F)F)cc(=O)[nH]2)cc1` as the compound, how does the displacement read?
Answer: -11.9%

Question: `CN1CCN(C2=NC(=O)/C(=C\c3cccc4c3OCO4)S2)CC1` was tested. Which displacement did it give?
Answer: -2.6%

Question: How did the displacement turn out when `CN(C)/C=C1\N=C(C(c2ccccc2)c2ccccc2)OC1=O` was run?
Answer: -11.7%

Question: For `COc1ccccc1-c1c(C(F)(F)F)oc2c(CN3CCCC3)c(O)ccc2c1=O`, which displacement is on record?
Answer: 11.4%

Question: For `C#CCOc1ccc2c3c(c(=O)oc2c1)CCC3`, which displacement is on record?
Answer: -4%

Question: For `C=CCSc1nnc2c3ccccc3n(CC=C)c2n1`, which displacement is on record?
Answer: 8.5%

Question: With `COc1ccc(CNC(=O)CSc2cccc3cccnc23)cc1` as the compound, how does the displacement read?
Answer: 11.7%

Question: For `Cc1cc(C)cc(NC(=O)C(=O)NCc2ccccc2)c1`, which displacement is on record?
Answer: 9.9%

Question: For `CCOc1ccccc1C=Nc1ccc(C(N)=O)cc1`, which displacement is on record?
Answer: -9.7%

Question: For `O=c1[nH]nc(SCc2ccc(Cl)cc2)c(=O)[nH]1`, which displacement is on record?
Answer: -4.3%

Question: `O=S(=O)(/N=C(/c1ccc(F)cc1)N1CCOCC1)c1ccccc1` was tested. Which displacement did it give?
Answer: 18.1%

Question: How did the displacement turn out when `COc1cc(-c2cc(C(F)(F)F)n3ncc(C(=O)Nc4cccc5ccccc45)c3n2)cc(OC)c1OC` was run?
Answer: 5.9%

Question: How did the displacement turn out when `Cc1nc(C)c(/C(O)=C/c2nc3ccccc3[nH]c2=O)o1` was run?
Answer: -8.5%

Question: `COC(=O)c1ccc(/C=C2/C(=O)NC(=O)N(c3ccc(C(C)C)cc3)C2=O)cc1` was tested. Which displacement did it give?
Answer: 2.5%

Question: For `CCOc1ccccc1NC(=O)c1ccccc1`, which displacement is on record?
Answer: 4.7%

Question: For `CN(C)CCNc1ncnc2c1cnn2-c1ccccc1`, which displacement is on record?
Answer: -6.9%

Question: For `O=c1c(Oc2ccccc2Br)coc2cc(O)ccc12`, which displacement is on record?
Answer: 18.8%

Question: With `CN1CCN(c2ccc(/C=C3\NC(=S)NC3=O)cc2[N+](=O)[O-])CC1` as the compound, how does the displacement read?
Answer: 17.7%

Question: Which displacement does the source give for `Cc1ccc(C(NC(=O)c2ccccc2)c2c(O)ccc3ccccc23)cc1` (stereo unspecified) here?
Answer: 2.5%

Question: `CN(C)/C=N/c1sc2c(c1C#N)CCCC2` was tested. Which displacement did it give?
Answer: 12.2%

Question: How did the displacement turn out when `O=C(/C=C/c1ccccc1)Nc1nc2ccc(Br)cc2s1` was run?
Answer: 15%

Question: For `Cc1ccc(NC(=O)c2cc(I)ccc2Cl)cc1`, which displacement is on record?
Answer: 11.4%

Question: For `N#C/C(=N/Nc1ccccc1[N+](=O)[O-])C(=N)N1CCOCC1`, which displacement is on record?
Answer: 11.8%

Question: For `O=C(COc1ccc(Cl)cc1Br)Nc1ccc2c(c1)OCCO2`, which displacement is on record?
Answer: 1.8%

Question: `CS(=O)(=O)N(Cc1ccccc1)c1ccc(C(=O)N2CCN(c3ccccc3)CC2)cc1` was tested. Which displacement did it give?
Answer: -5.7%

Question: For `Cc1cccc(C2Nc3cccc4cccc(c34)N2)c1`, which displacement is on record?
Answer: 20.1%

Question: With `CCOc1ccc(/C=C2\C(=O)NC(=O)N(c3ccc(Cl)cc3)C2=O)cc1Br` as the compound, how does the displacement read?
Answer: -7.7%

Question: For `COc1ccc(CCN2C(=O)CC(Cc3cccc(C)c3)C2=O)cc1OC` (stereo unspecified), which displacement is on record?
Answer: 15.9%

Question: For `COc1ccccc1-n1c(C)ccc1-c1ccccc1`, which displacement is on record?
Answer: -25.1%
